# Experimental data from the supplement of paper PMC8728848.
# The other results are listed elsewhere or left out.
# B1: Crocus Lectin (Crocus vernus), Q9FVA1 (protein)
# chain: MAKSLVLSSLLLALLLAAPLASLADNNVLLTGDVLHTDNQLSFESAAFVMQGDCNLVLYNEAGGFQSNTHGRGVGCTLRLNNFGQLEIHSANSNTPVWVSLRNGIPVRGDYAAVLGPDQHVTIYGPAIWSTPAPNRHERGATVSNIPRVRNVLFSSQVMSDNAQLATRDYSLVMRDDCNLALTKGSKTNIVWESGTSGRGQHCFMRLGHTGLIEISDDRLNTVWRSNTVGQEGDYVLILQINGQAVVYGPAVWSTASPARGGASAAL
# Tests used:
# Experiment in all cases: glycan array binding signal (z-score within array); higher = stronger binding
# Settings in all cases: glycan notation: IUPAC condensed, linker removed
# [1] = biological target: Gal(b1-3)[Neu5Ac(a2-6)]GalNAc
# Outline: (§1)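 Glycan array data were curated from 3228 arrays in the Consortium for Functional Glycomics database and kept only where the protein sequence was available. Glycan names were converted to IUPAC-condensed notation, and columns mapping to the same glycan were averaged. The binding signal is a within-array Z-score, averaged across arrays of the same protein sequence at different concentrations or buffers and across linkers. Negative Z-scores can be read as non-binding.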
# [2] = biological target: Gal(b1-3)[Neu5Ac(a2-6)]GlcNAc
# Outline: as §1
# [3] = biological target: Gal(b1-3)[Neu5Ac(a2-6)]GlcNAc(a1-4)Gal(b1-4)Glc
# Outline: as §1
# [4] = biological target: Gal(b1-3)[Neu5Ac(b2-6)]GlcNAc
# Outline: as §1
# [5] = biological target: Gal(b1-4)GalNAc(a1-3)[Fuc(a1-2)]Gal(b1-4)GlcNAc
# Outline: as §1
# [6] = biological target: Gal(b1-4)GalNAc(b1-3)[Fuc(a1-2)]Gal(b1-4)GlcNAc
# Outline: as §1
# Gal(b1-4)Glc = biological target: Gal(b1-4)Glc
# Outline: as §1
# Gal(b1-4)Glc6S = biological target: Gal(b1-4)Glc6S
# Outline: as §1
# Gal(b1-4)GlcNAc = biological target: Gal(b1-4)GlcNAc
# Outline: as §1
# [7] = biological target: Gal(b1-4)GlcNAc(b1-2)Man(a1-3)[Gal(b1-4)GlcNAc(b1-2)Man(a1-6)]Man(b1-4)GlcNAc(b1-4)GlcNAc
# Outline: as §1
# [8] = biological target: Gal(b1-4)GlcNAc(b1-3)Gal(b1-4)Glc
# Outline: as §1
# [9] = biological target: Gal(b1-4)GlcNAc(b1-3)Gal(b1-4)GlcNAc
# Outline: as §1
# [10] = biological target: Gal(b1-4)GlcNAc(b1-3)Gal(b1-4)GlcNAc(b1-3)Gal(b1-4)GlcNAc
# Outline: as §1
# [11] = biological target: Gal(b1-4)GlcNAc(b1-3)Gal(b1-4)[Fuc(a1-3)]GlcNAc(b1-3)Gal(b1-4)[Fuc(a1-3)]GlcNAc
# Outline: as §1
# [12] = biological target: Gal(b1-4)GlcNAc(b1-3)GalNAc
# Outline: as §1
# [13] = biological target: Gal(b1-4)GlcNAc(b1-3)[Gal(b1-4)GlcNAc(b1-6)]GalNAc
# Outline: as §1
# [14] = biological target: Gal(b1-4)GlcNAc(b1-6)GalNAc
# Outline: as §1
# [15] = biological target: Gal(b1-4)GlcNAc(b1-6)[Gal(b1-3)]GalNAc
# Outline: as §1
# [16] = biological target: Gal(b1-4)GlcNAc(b1-6)[Gal(b1-3)]GlcNAc
# Outline: as §1
# Gal3S(b1-3)GalNAc = biological target: Gal3S(b1-3)GalNAc
# Outline: as §1
# Gal3S(b1-3)GlcNAc = biological target: Gal3S(b1-3)GlcNAc
# Outline: as §1
# [17] = biological target: Gal3S(b1-3)[Fuc(a1-4)]GlcNAc
# Outline: as §1
# Gal3S(b1-4)Glc = biological target: Gal3S(b1-4)Glc
# Outline: as §1
# Gal3S(b1-4)Glc6S = biological target: Gal3S(b1-4)Glc6S
# Outline: as §1
# Gal3S(b1-4)GlcNAc = biological target: Gal3S(b1-4)GlcNAc
# Outline: as §1
# Gal3S(b1-4)GlcNAc6S = biological target: Gal3S(b1-4)GlcNAc6S
# Outline: as §1
# Gal3S6S(b1-4)GlcNAc = biological target: Gal3S6S(b1-4)GlcNAc
# Outline: as §1
# Gal3S6S(b1-4)GlcNAc6S = biological target: Gal3S6S(b1-4)GlcNAc6S
# Outline: as §1
# Gal4S(b1-4)GlcNAc = biological target: Gal4S(b1-4)GlcNAc
# Outline: as §1
# Gal4S6S(b1-4)GlcNAc = biological target: Gal4S6S(b1-4)GlcNAc
# Outline: as §1
# Gal6S(b1-4)Glc = biological target: Gal6S(b1-4)Glc
# Outline: as §1
# Gal6S(b1-4)Glc6S = biological target: Gal6S(b1-4)Glc6S
# Outline: as §1
# Gal6S(b1-4)GlcNAc = biological target: Gal6S(b1-4)GlcNAc
# Outline: as §1
# GalNAc(a1-3)Gal = biological target: GalNAc(a1-3)Gal
# Outline: as §1
# GalNAc(a1-3)GalNAc = biological target: GalNAc(a1-3)GalNAc
# Outline: as §1
# [18] = biological target: GalNAc(b1-3)Gal(a1-4)Gal(b1-4)GlcNAc
# Outline: as §1
# GalNAc(b1-4)GlcNAc = biological target: GalNAc(b1-4)GlcNAc
# Outline: as §1
# Glc(a1-4)Glc = biological target: Glc(a1-4)Glc
# Outline: as §1
# Glc(a1-6)Glc(a1-6)Glc = biological target: Glc(a1-6)Glc(a1-6)Glc
# Outline: as §1
# Glc(b1-4)Glc = biological target: Glc(b1-4)Glc
# Outline: as §1
# Glc(b1-6)Glc = biological target: Glc(b1-6)Glc
# Outline: as §1
# GlcA(b1-3)Gal = biological target: GlcA(b1-3)Gal
# Outline: as §1
# GlcA(b1-6)Gal = biological target: GlcA(b1-6)Gal
# Outline: as §1
# [19] = biological target: GlcNAc(a1-3)Gal(b1-4)GlcNAc
# Outline: as §1
# [20] = biological target: GlcNAc(a1-6)Gal(b1-4)GlcNAc
# Outline: as §1
# [21] = biological target: GlcNAc(b1-2)Gal(b1-3)GlcNAc
# Outline: as §1
# [22] = biological target: GlcNAc(b1-2)Man(a1-3)[GlcNAc(b1-2)Man(a1-6)]Man(b1-4)GlcNAc(b1-4)GlcNAc
# Outline: as §1
# GlcNAc(b1-3)Gal = biological target: GlcNAc(b1-3)Gal
# Outline: as §1
# [23] = biological target: GlcNAc(b1-3)Gal(b1-3)GalNAc
# Outline: as §1
# GlcNAc(b1-3)Gal(b1-4)Glc = biological target: GlcNAc(b1-3)Gal(b1-4)Glc
# Outline: as §1
# [24] = biological target: GlcNAc(b1-3)Gal(b1-4)GlcNAc
# Outline: as §1
# [25] = biological target: GlcNAc(b1-3)Gal(b1-4)GlcNAc(b1-3)Gal(b1-4)GlcNAc
# Outline: as §1
# GlcNAc(b1-3)GalNAc = biological target: GlcNAc(b1-3)GalNAc
# Outline: as §1
# [26] = biological target: GlcNAc(b1-3)[GlcNAc(b1-4)][GlcNAc(b1-6)]GlcNAc
# Outline: as §1
# [27] = biological target: GlcNAc(b1-3)[GlcNAc(b1-6)]Gal(b1-4)GlcNAc
# Outline: as §1
# [28] = biological target: GlcNAc(b1-3)[GlcNAc(b1-6)]GlcNAc
# Outline: as §1
# [29] = biological target: GlcNAc(b1-4)Gal(b1-4)GlcNAc
# Outline: as §1
# [30] = biological target: GlcNAc(b1-4)GlcNAc(b1-4)GlcNAc
# Outline: as §1
# [31] = biological target: GlcNAc(b1-4)GlcNAc(b1-4)GlcNAc(b1-4)GlcNAc(b1-4)GlcNAc
# Outline: as §1
# [32] = biological target: GlcNAc(b1-4)GlcNAc(b1-4)GlcNAc(b1-4)GlcNAc(b1-4)GlcNAc(b1-4)GlcNAc
# Outline: as §1
binder,measurement,setting,value
B1,glycan array binding signal (z-score),[1],0.099
same,glycan array binding signal (z-score),[2],-0.155
same,glycan array binding signal (z-score),[3],-0.196
same,glycan array binding signal (z-score),[4],-0.171
same,glycan array binding signal (z-score),[5],-0.195
same,glycan array binding signal (z-score),[6],-0.188
same,glycan array binding signal (z-score),Gal(b1-4)Glc,-0.152
same,glycan array binding signal (z-score),Gal(b1-4)Glc6S,-0.165
same,glycan array binding signal (z-score),Gal(b1-4)GlcNAc,-0.147
same,glycan array binding signal (z-score),[7],0.268
same,glycan array binding signal (z-score),[8],-0.19
same,glycan array binding signal (z-score),[9],-0.199
same,glycan array binding signal (z-score),[10],-0.063
same,glycan array binding signal (z-score),[11],-0.17
same,glycan array binding signal (z-score),[12],-0.189
same,glycan array binding signal (z-score),[13],-0.19
same,glycan array binding signal (z-score),[14],0.012
same,glycan array binding signal (z-score),[15],-0.185
same,glycan array binding signal (z-score),[16],-0.196
same,glycan array binding signal (z-score),Gal3S(b1-3)GalNAc,-0.167
same,glycan array binding signal (z-score),Gal3S(b1-3)GlcNAc,-0.141
same,glycan array binding signal (z-score),[17],-0.171
same,glycan array binding signal (z-score),Gal3S(b1-4)Glc,-0.159
same,glycan array binding signal (z-score),Gal3S(b1-4)Glc6S,-0.155
same,glycan array binding signal (z-score),Gal3S(b1-4)GlcNAc,-0.174
same,glycan array binding signal (z-score),Gal3S(b1-4)GlcNAc6S,-0.161
same,glycan array binding signal (z-score),Gal3S6S(b1-4)GlcNAc,-0.151
same,glycan array binding signal (z-score),Gal3S6S(b1-4)GlcNAc6S,-0.157
same,glycan array binding signal (z-score),Gal4S(b1-4)GlcNAc,-0.085
same,glycan array binding signal (z-score),Gal4S6S(b1-4)GlcNAc,-0.167
same,glycan array binding signal (z-score),Gal6S(b1-4)Glc,-0.169
same,glycan array binding signal (z-score),Gal6S(b1-4)Glc6S,-0.176
same,glycan array binding signal (z-score),Gal6S(b1-4)GlcNAc,-0.106
same,glycan array binding signal (z-score),GalNAc(a1-3)Gal,-0.155
same,glycan array binding signal (z-score),GalNAc(a1-3)GalNAc,-0.183
same,glycan array binding signal (z-score),[18],-0.173
same,glycan array binding signal (z-score),GalNAc(b1-4)GlcNAc,-0.167
same,glycan array binding signal (z-score),Glc(a1-4)Glc,-0.18
same,glycan array binding signal (z-score),Glc(a1-6)Glc(a1-6)Glc,-0.187
same,glycan array binding signal (z-score),Glc(b1-4)Glc,-0.187
same,glycan array binding signal (z-score),Glc(b1-6)Glc,-0.178
same,glycan array binding signal (z-score),GlcA(b1-3)Gal,-0.179
same,glycan array binding signal (z-score),GlcA(b1-6)Gal,-0.134
same,glycan array binding signal (z-score),[19],-0.153
same,glycan array binding signal (z-score),[20],-0.196
same,glycan array binding signal (z-score),[21],-0.176
same,glycan array binding signal (z-score),[22],0.975
same,glycan array binding signal (z-score),GlcNAc(b1-3)Gal,-0.192
same,glycan array binding signal (z-score),[23],-0.06
same,glycan array binding signal (z-score),GlcNAc(b1-3)Gal(b1-4)Glc,-0.178
same,glycan array binding signal (z-score),[24],-0.146
same,glycan array binding signal (z-score),[25],-0.197
same,glycan array binding signal (z-score),GlcNAc(b1-3)GalNAc,-0.194
same,glycan array binding signal (z-score),[26],-0.174
same,glycan array binding signal (z-score),[27],-0.163
same,glycan array binding signal (z-score),[28],-0.202
same,glycan array binding signal (z-score),[29],-0.173
same,glycan array binding signal (z-score),[30],-0.156
same,glycan array binding signal (z-score),[31],-0.143
same,glycan array binding signal (z-score),[32],-0.177
